Hit rate of the full screen: of about 43,000 compounds, about 200 (0.47%) were called active. Inconclusive results (about 12%) are left out. Calls follow the shape of the dose curve; as a rule, active = well fitted cell-killing curve with a large enough effect; inconclusive = small, poorly fitted or top-dose-only effect, or effect the other way; inactive = flat fitted curve, though single readings scatter. This is one part of the list.
% is scaled to controls: 0 for no effect and ±100 for the full control effect.

A short description of this test: Cell viability qHTS assay in S16 Pmp22-F2sN cells. Also: nearly all actives have a fitted effect of over 65% in size. The note with it: S16 Pmp22-F2sN Schwann cells viability, CellTiter-Glo, 24 h; series mostly up to 57.5 µM; activity change, negative = cytotoxicity: at the top concentration. In short, it runs like this:
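Used to flag compounds lowering reporter output through toxicity, this quantitative HTS measures ATP-based CellTiter-Glo luminescence in S16 Pmp22-F2sN Schwann cells after 24 h compound exposure at 37C.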
As for `COc1ccc(CCNC(=O)c2ccc3c(c2)N=C(C)c2cc(C)ccc2S3)cc1OC`, the “activity change, negative = cytotoxicity” value was inactive: -2.99%.
To `CCc1ccc(NC(=O)Cn2c(=O)c(CNc3ccccc3)cc3cc(OC)c(OC)cc32)cc1` belongs inactive: -0.309%; to `COc1ccc2c(c1)c1c(c(=O)n(-c3cccc(Cl)c3)c(=O)n1CC(=O)NCC1CCCO1)n2C` (configuration not stated), inactive: -1.18%; to `CCOc1ccc(NC(=O)CSC2=Nc3ccccc3C3=NC(CCC(=O)NCc4cccs4)C(=O)N23)cc1` (configuration not stated), inactive: 14.2%.
To `CCOc1ccc(-n2cc(-c3ccccc3)c3c(NC4CCCCC4)ncnc32)cc1` belongs inactive: -15.6%.
On to `Cc1nn(-c2ccccc2)c(OC(=O)c2ccccc2Cl)c1S(=O)(=O)c1ccccc1`, for which the “activity change, negative = cytotoxicity” value was inactive: 21.3%.
In the case of `CCOC(=O)c1[nH]c(C)c(CCC(=O)Nc2cccc(C(F)(F)F)c2)c1C` it was inactive: 0.299%.
To `COc1cc(CNCCSc2nnnn2C)ccc1OCc1ccc(F)cc1` belongs inactive: -12.5%; to `CC(CNC(=O)c1nnc(Cc2cccc(F)c2)o1)c1ccccc1` (configuration not stated), inactive: 1.92%; to `COCCNC(=O)Cn1cnc2sc(C)c(S(=O)(=O)N3CCN(c4ccccc4OC)CC3)c2c1=O`, inactive: 6.55%.
In the case of `Cc1ccc(CCNC(=O)c2ccc3c(c2)N(Cc2ccccc2F)C(=O)c2ccccc2S3=O)cc1` (configuration not stated) it was inactive: -0.6%.
For `CCOC(=O)c1cc(-c2ccccc2)n(CC(=O)Nc2ccccc2OCC)c1C`, the “activity change, negative = cytotoxicity” value was inactive: 9.27%.
To `Cc1cccc(C)c1NC(=O)CCCn1c(=O)c2cccn2c2ccccc21` belongs inactive: -2.64%; to `COc1ccc(-c2nc(CCNC(=O)c3ccccc3)cs2)cc1OC`, inactive: -11.7%; to `CCOC(=O)c1c(S(=O)(=O)NCC(=O)Nc2ccc(C(C)=O)cc2)c(C)n(C)c1C`, inactive: 5.21%.
To `Fc1ccc(-c2csc(=Nc3cccc(C(F)(F)F)c3)n2Cc2ccc3c(c2)OCO3)cc1` belongs inactive: -2.11%.
In the case of `CC(=O)N1CCCC1c1nc2ccccc2n1Cc1ccc(F)cc1` (configuration not stated) it was inactive: -3.3%; in that of `COc1cc(NC(=O)CN2C(=O)COc3ccc(S(=O)(=O)NC4CCCC4)cc32)cc(OC)c1`, inactive: -7.17%; in that of `Cc1ccc(Cl)cc1-n1ncc2c(Nc3ccc4c(c3)OCCO4)ncnc21`, inactive: 12.7%.
Regarding `O=C(c1ccc2c(c1)N(Cc1c(F)cccc1Cl)C(=O)c1ccccc1S2)N1CCCC1`, the “activity change, negative = cytotoxicity” value is inactive: 10.3%.
To `CCCn1c2ccccc2c2cnn(CC(=O)NCCCN(CC)c3ccccc3)c(=O)c21` belongs inactive: 1.19%.
`COc1cc(NS(=O)(=O)c2c(C(=O)N3CCCCC3)c(C)n(C)c2C)cc(OC)c1OC`: the “activity change, negative = cytotoxicity” value is inactive: -6.99%.
To `CCC(C)c1ccccc1OCC(=O)Nc1ccc(S(=O)(=O)Nc2cc(C)on2)cc1` (configuration not stated) belongs inactive: 15.7%; to `CC1CCc2c(sc3nnn(CC(=O)Nc4c(C(C)C)cccc4C(C)C)c(=O)c23)C1` (configuration not stated), inactive: 2.63%; to `O=C(Nc1cccc2cccnc12)c1ccc(-c2cccc(Cl)c2)o1`, inactive: 1.88%.
In the case of `COc1ccc(-c2cc3ncc(C(=O)c4cc([N+](=O)[O-])ccc4O)cn3n2)cc1` it was inactive: -9.31%; in that of `CC(=O)c1ccc(NC(=O)c2cc3sccc3n2Cc2ccc(Cl)cc2)cc1`, inactive: 14.1%.
To `CCOCCCNC(=O)C(=O)Nc1c2c(nn1-c1ccccc1)CSC2` belongs inactive: -14.8%; to `O=C(COc1ccc(Cl)cc1)NCC(c1ccco1)S(=O)(=O)c1ccc(F)cc1` (configuration not stated), inactive: -19.2%.
On to `CCN(CC)S(=O)(=O)c1ccc(C(=O)NC2CC(=O)N(c3ccc(OC)c(OC)c3)C2)cc1` (configuration not stated), for which the “activity change, negative = cytotoxicity” value is inactive: 1.15%.
To `O=C(c1ccccc1Cl)N1CCC(c2nc3ccccc3s2)CC1` belongs inactive: -1.33%; to `Cc1cccc(NC(=O)C2CCCN(S(=O)(=O)c3ccc4c(c3)CCCC(=O)N4)C2)c1` (configuration not stated), inactive: 15.1%.
To `COCCCn1c(SCC(=O)Nc2ccc(F)cc2)nc2c(sc3ccccc32)c1=O` belongs inactive: 5.13%; to `COc1ccc(CNC(=O)c2cc3cccc4c3n2CC(C)S4)cc1OC` (configuration not stated), inactive: 4.27%; to `COCCCn1c(=O)c2sccc2n2c(CCCC(=O)Nc3cccc(OC)c3)nnc12`, inactive: 1.84%.
In the case of `Cc1ccc(CNS(=O)(=O)c2ccc3[nH]c4c(c3c2)CCCCC4)cc1` it was inactive: 0.12%; in that of `CCOC(=O)N1CCN(S(=O)(=O)N2CCCC(C(=O)NCc3cc(Br)ccc3OC)C2)CC1` (configuration not stated), inactive: -12.7%.
Turning to `Cc1cc(=O)c2cc(C(=O)Nc3ccc(F)cc3)ccc2[nH]1`, the “activity change, negative = cytotoxicity” value was inactive: 9.75%.
To `CCN1CCc2nc3sc(C(=O)Nc4ccccc4OC(F)(F)F)c(N)c3cc2C1` belongs inactive: -7.74%; to `COc1cccc(Nc2nc3c(S(=O)(=O)c4cc(C)ccc4C)nnn3c3ccsc23)c1`, inactive: 18.3%; to `O=C(CN1c2ccc(Br)cc2-c2ccccc2S1(=O)=O)N1CCCCC1`, inactive: 3.33%.
Take `CC(=O)Nc1c(C)nn(-c2ccccc2)c1N1CCC(C(=O)Nc2ccccc2C(F)(F)F)CC1`: the “activity change, negative = cytotoxicity” value is inactive: 16.8%.
Turning to `COc1ccc(C)cc1-n1nnc(S(=O)(=O)c2ccc(C)cc2)c1C`, the “activity change, negative = cytotoxicity” value is inactive: 9.81%.
Regarding `O=C(Cn1c(-c2cccs2)cc2cc(F)ccc21)N1CCN(c2ccccc2)CC1`, the “activity change, negative = cytotoxicity” value was inactive: -3.74%.
In the case of `COc1ccc(CNc2oc(/C=C/c3cc(OC)c(OC)c(OC)c3)nc2C#N)cc1` it was inactive: -25.3%.
In the case of `CCOc1ccc(Nc2oc(/C=C/c3ccc(OC)c(OC)c3)nc2C#N)cc1` it was inactive: -14.3%; in that of `Cc1cccn2c(=O)c(C(=O)NC(C)c3ccccc3)c(O)nc12` (configuration not stated), inactive: -15.7%.

(Values after PubChem BioAssay AID1508642 (National Center for Advancing Translational Sciences (NCATS), 2021).)
